Experimental data as given in the supplement of paper PMC12217912.
The other results are listed elsewhere or left out. The full chains were built here from the parent and the listed change. Values near 0.05 are background.

B1: TEV protease; numbered along this chain (parent)
chain: MGESLFKGPRDYNPISSSICHLTNESDGHTTSLYGIGFGPFIITNKHLFRRNNGTLVVQSLHGVFKVKDTTTLQQHLVDGRDMIIIRMPKDFPPFPQKLKFREPQREERICLVTTNFQTKSMSSMVSDTSCTFPSGDGIFWKHWIQTKDGQCGSPLVSTRDGFIVGIHSASNFTNTNNYFTSVPKNFMELLTNQEAQQWVSGWRLNADSVLWGGHKVFMVKPEEPFQPVKEATQL

Variants of: B1
Test: raw area under fraction-flipped curve 0-4 h after induction (AUC4h, not background-subtracted), DNA-recorder readout of cleavage of the substrate (dimensionless); higher = more cleavage of the substrate by the protease variant
Settings: temperature: 34 °C; time window: 0-4 h after rhamnose induction
Protocol: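 In vivo DNA recorder in E. coli TOP10(DE3) ΔrhaA at 34 °C. Each TEVp single-site mutant (parent TEVp 0) is paired with a single-site variant of the 7-mer TEVs (canonical ENLYFQ|S). The substrate sits between flexible linkers in a Bxb1-sfGFP-TEVs-SsrA fusion, so cleavage stabilises Bxb1 and speeds flipping of a recombination array, read by NGS. The value is the raw area under the fraction-flipped curve over 0-4 h after rhamnose induction (AUC4h), with ≥20 reads per time point. It is not background-subtracted; inactive controls average about 0.047.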
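Also: Bxb1 expression induced with 0.2% (w/v) L-rhamnose at OD600 near 0.5, cultures sampled hourly, flipped fraction per protease–substrate barcode pair counted by paired-end Illumina sequencing.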

Row | Variant | area with substrate ENLYFAS | area with substrate ENLYFCS | area with substrate ENLYFDS | area with substrate ENLYFES | area with substrate ENLYFFS | area with substrate ENLYFGS | area with substrate ENLYFHS | area with substrate ENLYFIS | area with substrate ENLYFKS | area with substrate ENLYFLS | area with substrate ENLYFMS | area with substrate ENLYFNS | area with substrate ENLYFPS | area with substrate ENLYFRS | area with substrate ENLYFTS | area with substrate ENLYFWS | area with substrate ENLYFYS | area with substrate ENLYFSS | area with substrate ENLYFVS
1 | MGESLFKGPRDYNPISSSITHLTNESDGHTTSLYGIGFGPFIITNKHLFRRNNGTLVVQSLHGVFKVKDTTTLQQHLVDGRDMIIIRMPKDFPPFPQKLKFREPQREERICLVTTNFQTKSMSSMVSDTSCTFPSGDGIFWKHWIQTKDGQCGSPLVSTRDGFIVGIHSASNFTNTNNYFTSVPKNFMELLTNQEAQQWVSGWRLNADSVLWGGHKVFMVKPEEPFQPVKEATQL [C20T] | 0.0527 | 0.0584 | 0.0512 | 0.0519 | 0.059 | 0.0479 | 0.0659 | 0.0549 | 0.0562 | 0.0678 | 0.0641 | 0.0648 | 0.058 | 0.0598 | 0.0651 | 0.0549 | 0.0568 |  | 
2 | MGESLFKGPRDYNPISSSIVHLTNESDGHTTSLYGIGFGPFIITNKHLFRRNNGTLVVQSLHGVFKVKDTTTLQQHLVDGRDMIIIRMPKDFPPFPQKLKFREPQREERICLVTTNFQTKSMSSMVSDTSCTFPSGDGIFWKHWIQTKDGQCGSPLVSTRDGFIVGIHSASNFTNTNNYFTSVPKNFMELLTNQEAQQWVSGWRLNADSVLWGGHKVFMVKPEEPFQPVKEATQL [C20V] | 0.0592 | 0.0565 |  | 0.0656 | 0.0691 | 0.0655 | 0.0599 | 0.0567 | 0.0703 | 0.0567 | 0.0651 | 0.0594 | 0.0528 | 0.0626 | 0.0632 | 0.0601 | 0.063 | 0.035 | 0.0633
3 | MGESLFKGPRDYNPISSSICHLTNESDGHTTSLYGLGFGPFIITNKHLFRRNNGTLVVQSLHGVFKVKDTTTLQQHLVDGRDMIIIRMPKDFPPFPQKLKFREPQREERICLVTTNFQTKSMSSMVSDTSCTFPSGDGIFWKHWIQTKDGQCGSPLVSTRDGFIVGIHSASNFTNTNNYFTSVPKNFMELLTNQEAQQWVSGWRLNADSVLWGGHKVFMVKPEEPFQPVKEATQL [I36L] | 0.0602 | 0.0619 | 0.0564 | 0.0674 | 0.0565 | 0.0605 | 0.0642 | 0.061 | 0.0643 | 0.0597 | 0.0627 | 0.0637 | 0.0585 |  | 0.0436 |  | 0.0613 | 0.0658 | 0.0564
4 | MGESLFKGPRDYNPISSSICHLTLESDGHTTSLYGIGFGPFIITNKHLFRRNNGTLVVQSLHGVFKVKDTTTLQQHLVDGRDMIIIRMPKDFPPFPQKLKFREPQREERICLVTTNFQTKSMSSMVSDTSCTFPSGDGIFWKHWIQTKDGQCGSPLVSTRDGFIVGIHSASNFTNTNNYFTSVPKNFMELLTNQEAQQWVSGWRLNADSVLWGGHKVFMVKPEEPFQPVKEATQL [N24L] | 0.0577 | 0.0597 | 0.0812 | 0.0689 | 0.0695 | 0.0675 | 0.0305 | 0.0645 | 0.0627 |  | 0.0673 | 0.0671 | 0.0615 | 0.0444 | 0.0587 | 0.0585 | 0.0563 | 0.0661 | 
5 | MGESLFKGPRDYNPISSSICHLTNESDGHKTSLYGIGFGPFIITNKHLFRRNNGTLVVQSLHGVFKVKDTTTLQQHLVDGRDMIIIRMPKDFPPFPQKLKFREPQREERICLVTTNFQTKSMSSMVSDTSCTFPSGDGIFWKHWIQTKDGQCGSPLVSTRDGFIVGIHSASNFTNTNNYFTSVPKNFMELLTNQEAQQWVSGWRLNADSVLWGGHKVFMVKPEEPFQPVKEATQL [T30K] | 0.0648 |  |  | 0.0863 | 0.0688 |  | 0.0573 | 0.0612 | 0.0376 |  | 0.0666 | 0.0685 | 0.051 |  | 0.0504 | 0.0731 |  | 0.0631 | 
6 | MGESLFKGPRDYNPISSSICHLTNESDGHTTSLYGIEFGPFIITNKHLFRRNNGTLVVQSLHGVFKVKDTTTLQQHLVDGRDMIIIRMPKDFPPFPQKLKFREPQREERICLVTTNFQTKSMSSMVSDTSCTFPSGDGIFWKHWIQTKDGQCGSPLVSTRDGFIVGIHSASNFTNTNNYFTSVPKNFMELLTNQEAQQWVSGWRLNADSVLWGGHKVFMVKPEEPFQPVKEATQL [G37E] | 0.0482 | 0.0465 |  | 0.0356 | 0.0613 |  | 0.0399 | 0.041 | 0.0476 | 0.0522 | 0.0511 |  | 0.0733 | 0.0526 | 0.0486 | 0.0473 |  | 0.0429 | 0.0403
7 | MGESLFKGPRDYNPISSSICHLTNEADGHTTSLYGIGFGPFIITNKHLFRRNNGTLVVQSLHGVFKVKDTTTLQQHLVDGRDMIIIRMPKDFPPFPQKLKFREPQREERICLVTTNFQTKSMSSMVSDTSCTFPSGDGIFWKHWIQTKDGQCGSPLVSTRDGFIVGIHSASNFTNTNNYFTSVPKNFMELLTNQEAQQWVSGWRLNADSVLWGGHKVFMVKPEEPFQPVKEATQL [S26A] | 0.0696 | 0.0653 | 0.0549 | 0.0593 | 0.0641 |  | 0.0585 | 0.0655 | 0.0671 | 0.0466 | 0.0732 | 0.0656 |  | 0.0598 | 0.0694 | 0.0526 | 0.0534 |  | 0.0608
8 | MGESLFKGPRDYNPISSSICHLTNETDGHTTSLYGIGFGPFIITNKHLFRRNNGTLVVQSLHGVFKVKDTTTLQQHLVDGRDMIIIRMPKDFPPFPQKLKFREPQREERICLVTTNFQTKSMSSMVSDTSCTFPSGDGIFWKHWIQTKDGQCGSPLVSTRDGFIVGIHSASNFTNTNNYFTSVPKNFMELLTNQEAQQWVSGWRLNADSVLWGGHKVFMVKPEEPFQPVKEATQL [S26T] | 0.0596 | 0.0554 |  | 0.0621 | 0.0553 |  |  | 0.0516 | 0.0743 | 0.0573 |  | 0.0781 | 0.0559 |  | 0.0562 | 0.0591 | 0.0462 | 0.0482 | 0.0452
